Test results taken from the RNAGym collection of RNA variant scans (doi:10.7554/elife.90254).
The source gives no read counts; variants with many changes may rest on few reads.

B1: OR4K15 (parent)
chain: GUUAACGGUCAUAGGCCAUGGAAACUAGGAGCACCAUUUCGCUGCCAGUGAAGAAAUGAACAAAGAAAAUCUGGGCCAGGCAGGCAUCAAAAGAAAUAGUCUUGCGCUCAACCAGAAAGUCUGUAAUCAUUUUAAGGGUA

Variants of: B1
Assay: self-cleavage, relative activity (ratio to wild type); higher = more cleavage; in vitro, sequencing; the parent is a self-cleaving ribozyme

Variant | self-cleavage
A13G A54G G104A | 0.13
A91G C105U U122C U127A | 0.02
A4G U19C A22G U37C A94G U100C U139C | 1.5
A18G A47U A55G G58A | 0.3
G29A U72C A96G | 0.33
A91G U100C C101A U124A | 0.45
A52G A54G A78U A86C A90G | 0.21
A36C A55G A59G A64U U103C | 1.45
A13U C35U U38A A54G | 0.36
A24C U49C A52G | 1.21
A52U A64G A86C A129G U133C | 0.91
A51G A66G U100C | 1.48
U2C A91G A92U A126G | 1.54
A18G A62U A64U A82G A90U A114G | 0.17
U49A A62U A92G U97A U102A | 0.8
A47U A56G A64C C112A | 0.02
G15A A92G A140G | 1.83
C40U U43C A134G | 0.81
A11G U37C A91G A114U | 0.05
C32U U37C U38C U102A U131C | 0.32
A56G A64G U87C U103C | 1.22
A55U A66G A129U | 0.94
A11C A51U A54G A55G A64G A66G A111G | 0.02
C42A A59U A111G | 0.02

Variant | self-cleavage
A52G U70A A125G | 0.57
A11G U26C G31A | 0.59
A23G A33G A47G A60G C77A | 0.65
A52G A117G A129G | 1.01
A4G C34U A66G A78U | 0.37
A18G A51G A55G U127A | 1.02
A92G A95G A114U | 0.08
A11G A56G A64G A110U | 1.09
A64G A67G A111G A114G U133C | 0
U19C A52G A96G | 2.32
C34A U43C A54U A56G U70C | 1.05
U2C A5G U38C A126G U127A | 0
A95G A126G U130C | 1.44
A23G U49C A60G G79A A94G | 0.09
A13G U43A U127C | 0.97
U39A A67G G104U | 0.01
A11G A78G A116U | 0.05
C32U A62G U120C | 0.72
A67G G75A A95G U108A | 0.01
U9C A24G A56G A82U | 0.67
G7A U19A A60G A89G A90G A95G A118G | 0.52
A52G A67G A82C A111G A118U | 0.01
A27G U102A U131C | 0.77
C45A A67G U103C | 0.62

Variant | self-cleavage
A22G A95G C107U | 0.03
U38C A78U A110G | 0.1
U38C A69C U130C | 0.6
A24G A33G G75C U124C | 0.08
A30G A56G A60C A69G | 1.43
G28U A47G A55G A66G A94G A140G | 1.12
U19C A54G U87C | 1.69
A22G A52G A55G | 1.21
A5G A68G U139C | 1.6
A22G A23G U72A | 0.42
A54G A55G U70C A96G A98G | 0.15
G7A A33G A62G A69U A114U | 0.09
U12C G31C U49A A118G A125G | 0.17
U43A A60G A89U | 1.48
U37C C61U A68G | 2.66
A11G A114U A116C | 0.01
A11G A54G A63G G106A A126G | 0.02
U87C A111G U130C | 0
A24U U49C A52G | 1.15
C6U A23G A52G G65U G73A A96G | 0.32
A24G G29A A98G | 0.44
U9A U43A A129G U133G | 0.56
A5C C109U A117G U132C A135G | 0.37
C32U U100A U127C U130C U133C | 0.23

Variant | self-cleavage
A5G C32U A33G | 1.39
C10U A11G U19C | 1.32
A55G A68G G80A A126G U130C | 0.19
A23G U43C U131C | 0.52
U3G U9A C25U A63U | 0.65
A59G A67G G79U G106U U130C | 0
U39A U49C C112G | 0.02
A11G U57C U108C A110C | 0.01
U2C A13U A64G A98G | 0.5
U19A A62G C76G C113G | 0.02
U39A A78U A117G | 0.15
A5G A11G A64G U131C | 1.01
A18U A23G U72C C85U A92G | 0.2
A5G A22G U37C A59G A118G | 0.1
U9C G41A C85G | 1.09
A23G U37C U108C A114U | 0
A24U A78U U108C | 0
U9C A51G U57C G137A | 1.34
G7A U38C A59U U132C | 0.37
U70C A95G U102C A116U A126G | 1.11
G8A A36U U70A | 2.09
A67G A111G U122C | 0.01
A63U U70C C77U U87C | 2.09
A24G C35U A54G A118U A135G | 0.4

Variant | self-cleavage
A4G A69G A117G U131C | 0.54
A59G A67G A126G | 0.87
U2A A4U U37C G53A A64G | 1.09
A11C A36U U108C U124C | 0
A24G C40U A116U | 0.62
U9C U72A A126G | 0.28
U2C A11U U39C U130C | 1.13
U9A G14A A47U A116G A140U | 0.2
A23G U37C A63G A126U | 0.88
A95G A111G U139A | 0.04
U2C A60G A69G | 1.04
A24G U37C U108C | 0.06
U19C U49C A62C | 1.32
A51G U57C C77A | 0.76
A98U U102C A111G A118G | 0.01
A60G A67G A82G U100C | 1.14
A18G U43A A78U A82U U122C | 0.06
A30U U124C A126G | 0.83
A56G A66U G84U A86U | 0.64
A23G A51G U133C | 1.35
C71U U87C U122C | 0.21
A47G U108C A110G | 0.01
U57C A89C U108C | 0.02
U43C A91G U103C U108C A116G | 0.01

Variant | self-cleavage
A54G A68G C113G | 0.05
U3C A68G A110G A118G U130C | 0.06
U19A A23G A47U | 1.29
A47U A55G U72A | 0.03
A5G A82U U87C A92U A125G | 0.04
A62G A92G A129G | 0.85
U39C A66G U70C | 0.6
U43C A96C U102C | 1.87
A63G A82G U132A | 0.28
A5U A23U A56G A118G | 0.29
A13C U39C A51G A86G A94G C107U U130C | 0.01
U2C U9C U43C U100C A114G U122C | 0.72
U43C A62G A66G U87C A96G | 1.03
U2C G15C G80A | 0.18
A5G A111G A134G | 0
U12G A23C A94G | 0.55
A33U A47G A54G | 0.78
U19C A90U A94U A110G | 0.22
U49C A89G A114U | 0.15
U57C A94G C128A | 0.81
C6A U49C A82G G83A | 0.34
U9C A60G A82G C113A | 0.06
U120C A126C A140G | 0.21
A13G A22G U87C | 1.09

Variant | self-cleavage
A23G A60G A78U | 0.4
A18G U39A A47G A63G A92G | 1.08
A30G U39C A91G A111G | 0.04
C40U A56G A69G | 0.65
A59G A66G U102A A135C | 0.58
U19C A47U A63G A78G | 0.14
A23G A69G A86G | 1.74
U57C A60G U102C U131C | 1.85
U26C U108A A118G | 0.01
U26C U57C A64G C85U | 0.57
U38C U43C A82G A95G | 0.37
U38C A54G A68G | 1.52
A27U A51U A114U | 0.04
A18C U127C A140C | 0.98
U72A U87C A92U A117G | 0.18
G80A A114U U120C | 0.01
U38C A95G A96G | 1.72
A23G U38C A67C U108C | 0.04
U2C A23G A63G | 0.72
A18U A33G A56G U130C | 0.58
A22G A30G U49A | 1
A59G A67U U87C A140G | 2.03
A55C A63G U97C | 0.34
